These results are taken from paper PMC5908784, “Extracellular loops 2 and 3 of the calcitonin receptor selectively modify agonist binding and efficacy” (Biochemical Pharmacology, 2018).

SMILES strings stand for the structures.

Holding throughout (assay): cAMP accumulation
Holding throughout (type): cell-based
What all share (settings): CV1-FlpIn cells, 30 min, IBMX, mean ± S.E.M.

The target of one test is T1, hCTR L291A (Homo sapiens, UniProt P30988, L291A).
T1 construct: expressed in transfected cells
How it is done: (§1) Cells (2.5 × 10^4 cells/well) were seeded into 96-well plates and incubated overnight. Cells were stimulated with increasing concentrations of ligands for 30 min in the presence of IBMX. The liquid was discarded, changed to absolute ethanol and volatilized to dryness at room temperature. […] Data were normalized to the response of 100 μM forskolin.
(§2) Data were corrected for radioligand occupancy using the Cheng-Prusoff equation in Prism; as such data are reported as pKi. Emax and EC50 were estimated from concentration-response curves using with a 3-parameter logistic equation in Prism (v7). These values are a composite of functional affinity, efficacy and stimulus response coupling. […] Significance was accepted at P < 0.05.

Another test addresses T2, hCTR W361A (Homo sapiens, UniProt P30988, W361A).
T2 construct: expressed in transfected cells
The protocol: as §1, §2

A further test concerns the target T3, hCTR D373A (Homo sapiens, UniProt P30988, D373A).
T3 construct: c-Myc (N); expressed in transfected cells
How it is done:
as §1, §2

The next test has as its target T4, hCTR T295A (Homo sapiens, UniProt P30988, T295A).
T4 construct: c-Myc (N); expressed in transfected cells
How it is done: as §1, §2

A further test addresses T5, hCTR N286A (Homo sapiens, UniProt P30988, N286A).
T5 construct: c-Myc (N); expressed in transfected cells
The protocol:
as §1, §2

The target of another test is T6, hCTR WT (Homo sapiens, UniProt P30988).
T6 construct: expressed in transfected cells
How it is done:
as §1, §2

The target in another test is T7, hCTR H296A (Homo sapiens, UniProt P30988, H296A).
T7 construct: c-Myc (N); expressed in transfected cells
How it is done: as §1, §2

The target in a further test is T8, hCTR G369A (Homo sapiens, UniProt P30988, G369A).
T8 construct: c-Myc (N); expressed in transfected cells
The protocol:
as §1, §2

The target in a further test is T9, hCTR I300A (Homo sapiens, UniProt P30988, I300A).
T9 construct: c-Myc (N); expressed in transfected cells
The protocol: as §1, §2

Another test addresses T10, hCTR W290A (Homo sapiens, UniProt P30988, W290A).
T10 construct: c-Myc (N); expressed in transfected cells
How it is done: as §1, §2

T8 sequence (P30988 25-474 G369A): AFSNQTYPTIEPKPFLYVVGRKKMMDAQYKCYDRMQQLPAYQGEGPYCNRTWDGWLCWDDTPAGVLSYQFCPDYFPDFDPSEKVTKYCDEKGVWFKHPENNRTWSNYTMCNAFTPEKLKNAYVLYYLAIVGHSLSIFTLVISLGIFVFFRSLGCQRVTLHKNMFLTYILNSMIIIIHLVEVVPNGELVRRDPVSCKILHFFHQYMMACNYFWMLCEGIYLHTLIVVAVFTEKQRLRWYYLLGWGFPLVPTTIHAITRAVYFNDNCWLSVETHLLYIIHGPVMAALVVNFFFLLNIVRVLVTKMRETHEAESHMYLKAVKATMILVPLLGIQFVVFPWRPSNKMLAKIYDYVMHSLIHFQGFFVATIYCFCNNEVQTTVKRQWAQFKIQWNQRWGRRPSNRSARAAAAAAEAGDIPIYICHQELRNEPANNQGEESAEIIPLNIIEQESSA
T2 sequence (P30988 25-474 W361A): as the sequence (P30988 25-474 G369A) above, with W337A, A345G counted along it
T4 sequence (P30988 25-474 T295A): as the sequence (P30988 25-474 G369A) above, with T271A, A345G counted along it
T1 sequence (P30988 25-474 L291A): as the sequence (P30988 25-474 G369A) above, with L267A, A345G counted along it
T7 sequence (P30988 25-474 H296A): as the sequence (P30988 25-474 G369A) above, with H272A, A345G counted along it
T10 sequence (P30988 25-474 W290A): as the sequence (P30988 25-474 G369A) above, with W266A, A345G counted along it
T3 sequence (P30988 25-474 D373A): as the sequence (P30988 25-474 G369A) above, with A345G, D349A counted along it
T9 sequence (P30988 25-474 I300A): as the sequence (P30988 25-474 G369A) above, with I276A, A345G counted along it
T6 sequence (P30988 25-474): as the sequence (P30988 25-474 G369A) above, with A345G counted along it
T5 sequence (P30988 25-474 N286A): as the sequence (P30988 25-474 G369A) above, with N262A, A345G counted along it

With `CC(C)C[C@H](NC(=O)[C@H](CC(N)=O)NC(=O)[C@H](CC(N)=O)NC(=O)[C@H](CO)NC(=O)[C@H](CO)NC(=O)[C@H](CCCNC(=N)N)NC(=O)[C@@H](NC(=O)[C@H](CC(C)C)NC(=O)[C@H](Cc1ccccc1)NC(=O)[C@H](CC(N)=O)NC(=O)[C@H](C)NC(=O)[C@H](CC(C)C)NC(=O)[C@H](CCCNC(=N)N)NC(=O)[C@H](CCC(N)=O)NC(=O)[C@@H](NC(=O)[C@H](C)NC(=O)[C@@H]1CSSC[C@H](NC(=O)[C@@H](N)CCCCN)C(=O)N[C@@H](CC(N)=O)C(=O)N[C@@H]([C@@H](C)O)C(=O)N[C@@H](C)C(=O)N[C@@H]([C@@H](C)O)C(=O)N1)[C@@H](C)O)C(C)C)C(=O)NCC(=O)N1CCC[C@H]1C(=O)N[C@H](C(=O)N[C@@H](CC(C)C)C(=O)N1CCC[C@H]1C(=O)N1CCC[C@H]1C(=O)N[C@H](C(=O)N[C@@H](CC(N)=O)C(=O)N[C@H](C(=O)NCC(=O)N[C@@H](CO)C(=O)N[C@@H](CC(N)=O)C(=O)N[C@H](C(=O)N[C@@H](Cc1ccc(O)cc1)C(N)=O)[C@@H](C)O)C(C)C)[C@@H](C)O)C(C)C` [rAmy], the EC50 at hCTR L291A is 18.2 nM; on hCTR W361A, 16.2 nM; on hCTR D373A it was 10.5 nM; on hCTR T295A it was 43.7 nM; on hCTR N286A, 44.7 nM; at hCTR WT it was 8.91 nM. Moreover, the EC50 at hCTR H296A was 5.13 nM; on hCTR G369A it was 14.8 nM; at hCTR I300A it was 24.5 nM; on hCTR W290A, 81.3 nM.
